The values that follow come from PubChem BioAssay AID2202238 (Ras Initiative Chemistry Research Team, Frederick National …, 2025).

This assay addresses GTPase KRas (Homo sapiens) (UniProt P01116). Description: Covalent labelling of cysteine mutants by fragments, read by mass spectrometry (AID 2202238). Set-up: protein at 5 µM with 500 µM competing thiol for 1.5 h. The settings on record: KRAS G12D cysteine mutants, disulfide tethering, MALDI-TOF labeling, stronger effect = higher value, fragment at 500 µM.
UniProt P01116, sequence (P01116 whole entry, looked up, the tested form may be a part): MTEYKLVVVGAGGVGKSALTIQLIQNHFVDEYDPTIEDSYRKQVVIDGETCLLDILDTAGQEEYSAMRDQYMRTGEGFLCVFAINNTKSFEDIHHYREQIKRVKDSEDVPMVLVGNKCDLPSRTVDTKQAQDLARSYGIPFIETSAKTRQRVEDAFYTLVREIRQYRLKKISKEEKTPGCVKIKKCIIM
[1] abbreviates: measured here: G60C mutant labeling.
Setting [2] is: measured here: G75C mutant labeling.
Setting [3] is: measured here: H94C mutant labeling.
The mark [4] stands for this setting: measured here: I36C mutant labeling.
Setting [5] is: measured here: L120C mutant labeling.
The mark [6] stands for this setting: measured here: M67C mutant labeling.
Where [7] appears, read: measured here: M72C mutant labeling.
Setting [8] is: measured here: N26C mutant labeling.
Where [9] appears, read: measured here: N86C mutant labeling.
The mark [10] stands for this setting: measured here: P121C mutant labeling.
Setting [11] is: measured here: S122C mutant labeling.
[12] abbreviates: measured here: S136C mutant labeling.

Structures are written as SMILES. Some of the results follow. Shown are side measurements of this screen, not its main read-out; they come without a call.

Regarding `O=C(Cn1cnc2sc(-c3ccccc3)cc2c1=O)NCCS`, the percent labeling was found to be 3.6% under setting [1]; 0% under setting [2]; 0% under setting [3]; 4.9% under setting [4]; 10.5% under setting [5]; 5.3% under setting [6]. Also, the percent labeling stood at 4.2% under setting [7]; 7.7% under setting [8]; 3.4% under setting [9]; 0% under setting [10]; 0% under setting [11]; 3.2% under setting [12].
As for `Cc1[nH]ncc1C(=O)NCCS`, the percent labeling under setting [1] amounted to 25%; the percent labeling under setting [2] was 13.5%; the percent labeling under setting [3] was found to be 27.9%; the percent labeling under setting [4] came out at 21.9%; the percent labeling under setting [5] stood at 32.7%; the percent labeling under setting [6] was 26.8%. Further, the percent labeling was found to be 29.4% under setting [7]; 33.5% under setting [8]; 24.8% under setting [9]; 25.7% under setting [10]; 27.4% under setting [11]; 34.5% under setting [12].
Consider `O=C(CCS)NCc1nocc1-c1ccc(Cl)cc1`, for which the percent labeling is 18.7% under setting [2]; 65.1% under setting [3]; 43.6% under setting [4]; 23.9% under setting [5]; 36.9% under setting [6]; 55.6% under setting [7]. The percent labeling was 25.7% under setting [9], 29.5% under setting [10], 24.9% under setting [11] and 50% under setting [12].
For `Cc1nnc2ccc(C(=O)NCCS)cc2c1C`, the percent labeling by setting is: under setting [1], 14.2%; under setting [2], 6.4%; under setting [3], 5.9%; under setting [4], 3.9%; under setting [5], 16.3%; under setting [6], 10.9%. The percent labeling is, setting by setting: under setting [7], 7.8%; under setting [8], 32.8%; under setting [9], 4%; under setting [10], 3.6%; under setting [11], 4.8%; under setting [12], 18.8%.
As for `O=C(NCCS)[C@@H]1OCCC[C@@H]1c1ccccc1`, the percent labeling is, setting by setting: under setting [1], 47.2%; under setting [2], 14.8%; under setting [3], 28.8%; under setting [4], 20.6%; under setting [5], 32.5%; under setting [6], 21.1%. Further, the percent labeling runs as follows: under setting [7], 34.7%; under setting [8], 32.2%; under setting [9], 19.1%; under setting [10], 24.9%; under setting [11], 22.4%; under setting [12], 42.9%.
Regarding `CCn1c(=O)[nH]c2cc(C(=O)NCCS)ccc21`, the percent labeling runs as follows: under setting [1], 30.4%; under setting [2], 27%; under setting [3], 31.2%; under setting [4], 26.5%; under setting [5], 31.7%; under setting [6], 31.9%. Also, the percent labeling reads like this: under setting [7], 54.3%; under setting [8], 54.8%; under setting [9], 26.9%; under setting [10], 25.7%; under setting [11], 25.1%; under setting [12], 45.5%.
Consider `O=C(COc1ccc(Br)cc1Cl)NCCS`, for which the percent labeling reads like this: under setting [1], 49.5%; under setting [2], 17.5%; under setting [3], 16.5%; under setting [4], 9.6%; under setting [5], 13.6%; under setting [6], 9.7%. Further, the percent labeling was found to be 13.5% under setting [7]; 28% under setting [8]; 10.1% under setting [9]; 14.1% under setting [10]; 6.3% under setting [11]; 12.5% under setting [12].
`CC(=O)NCc1ccc(C(=O)NCCS)s1`: the percent labeling is, setting by setting: under setting [1], 37.5%; under setting [2], 15.1%; under setting [3], 33.3%; under setting [4], 23.8%; under setting [5], 39.5%; under setting [6], 29.7%. Further, the percent labeling was determined as 28.4% under setting [7]; 42.9% under setting [8]; 31.8% under setting [9]; 28.1% under setting [10]; 33.3% under setting [11]; 42.6% under setting [12].
Turning to `Cc1ccc(C(=O)NC(CC(=O)NCCS)c2ccccc2)cc1` (stereo unspecified), the percent labeling is 18.8% under setting [1]; 11% under setting [2]; 9.1% under setting [3]; 11.5% under setting [4]; 10.2% under setting [5]; 11.2% under setting [6]. Moreover, the percent labeling was determined as 11.5% under setting [7]; 15.5% under setting [8]; 3.7% under setting [9]; 11.5% under setting [10]; 5.7% under setting [11]; 13.3% under setting [12].
On to `O=C(CCNC(=O)c1c[nH]c2ccccc12)NCCS`, for which the percent labeling came out at 49.7% under setting [1]; 22.6% under setting [2]; 42.3% under setting [3]; 32.5% under setting [4]; 41.2% under setting [5]; 69.6% under setting [6]. The percent labeling was determined as 38% under setting [7]; 42.7% under setting [8]; 29.4% under setting [9]; 40.6% under setting [10]; 35.3% under setting [11]; 43.1% under setting [12].
For `O=C(COc1ccc2oc3c(c2c1)CCCC3)NCCS`, the percent labeling worked out at 33.5% under setting [1]; 17.7% under setting [2]; 17.3% under setting [3]; 10.2% under setting [4]; 16% under setting [5]; 12% under setting [6]. Moreover, the percent labeling by setting is: under setting [7], 29.6%; under setting [8], 22.9%; under setting [9], 12.4%; under setting [10], 12.9%; under setting [11], 8.6%; under setting [12], 11.8%.
`CN(C(=O)CCS)C1c2cc(Cl)cc(Cl)c2CC1O` (stereo unspecified): the percent labeling is 29.8% under setting [2]; 22.9% under setting [3]; 24.5% under setting [4]; 17.1% under setting [5]; 23.6% under setting [6]; 33.7% under setting [7]. Further, the percent labeling under setting [9] was 22%, the percent labeling under setting [10] worked out at 22.9%, the percent labeling under setting [11] stood at 16.5% and the percent labeling under setting [12] turned out to be 32.3%.
With `O=C(Cc1ccc(F)c(Cl)c1)NCCS`, the percent labeling turned out to be 56.2% under setting [1]; 21.3% under setting [2]; 30.8% under setting [3]; 28.2% under setting [4]; 33.8% under setting [5]; 29.8% under setting [6]. Moreover, the percent labeling by setting is: under setting [7], 38.6%; under setting [8], 37.5%; under setting [9], 21.6%; under setting [10], 28.7%; under setting [11], 21.7%; under setting [12], 39.5%.
`O=C(CCS)NCC1(COc2ccc(Br)cc2)COC1` registered a percent labeling under setting [2] of 13.2%; a percent labeling under setting [3] of 12.3%; a percent labeling under setting [4] of 0%; a percent labeling under setting [5] of 13.8%; a percent labeling under setting [6] of 33.2%; a percent labeling under setting [7] of 33.3%. Further, the percent labeling turned out to be 8.8% under setting [9], 2.9% under setting [10], 16.3% under setting [11] and 4.8% under setting [12].
Turning to `CC(C(=O)NCCS)c1ccc(Br)cc1` (stereo unspecified), the percent labeling stood at 55.5% under setting [1]; 22.4% under setting [2]; 29.9% under setting [3]; 17.9% under setting [4]; 57.4% under setting [5]; 22.4% under setting [6]. In addition, the percent labeling by setting is: under setting [7], 42.6%; under setting [8], 38.9%; under setting [9], 20.7%; under setting [10], 25.4%; under setting [11], 19%; under setting [12], 36.3%.
With `Cc1cc(OCC(=O)NCCS)cc(C)c1Cl`, the percent labeling reads like this: under setting [1], 35.1%; under setting [2], 15.1%; under setting [3], 13%; under setting [4], 9.2%; under setting [5], 14.6%; under setting [6], 9.5%. Moreover, the percent labeling was 34.6% under setting [7]; 25.5% under setting [8]; 11.8% under setting [9]; 11.9% under setting [10]; 9.7% under setting [11]; 14.5% under setting [12].
As to `CN(C)Cc1ccoc1-c1n[nH]c(CNC(=O)CCS)n1`, the percent labeling reads like this: under setting [2], 6.7%; under setting [3], 25.6%; under setting [4], 41.9%; under setting [5], 27.3%; under setting [6], 38.6%; under setting [7], 13.8%. Besides, the percent labeling by setting is: under setting [9], 16.2%; under setting [10], 28.3%; under setting [11], 26.2%; under setting [12], 40.9%.
For the molecule `O=C(CCS)NC1CCN(c2ccn[nH]2)C1=O` (stereo unspecified), the percent labeling is 16.6% under setting [2]; 25.7% under setting [3]; 37.2% under setting [4]; 43.6% under setting [5]; 32.1% under setting [6]; 18.3% under setting [7]. For the same molecule, the percent labeling runs as follows: under setting [9], 40.6%; under setting [10], 36.2%; under setting [11], 38.2%; under setting [12], 54.8%.
With `Cc1cc(=O)c(OCc2ccccc2)c(CNC(=O)CCS)n1C`, the percent labeling reads like this: under setting [2], 12.9%; under setting [3], 29.2%; under setting [4], 32%; under setting [5], 21.6%; under setting [6], 35.6%; under setting [7], 18%. Moreover, the percent labeling by setting is: under setting [9], 9.9%; under setting [10], 25.2%; under setting [11], 27.2%; under setting [12], 59.2%.
On to `Cc1sc(C(N)=O)cc1NC(=O)CCS`, for which the percent labeling under setting [2] is 21.3%; the percent labeling under setting [3] was found to be 42.7%; the percent labeling under setting [4] came to 43.9%; the percent labeling under setting [5] turned out to be 32.7%; the percent labeling under setting [6] was 36%; the percent labeling under setting [7] was 41%. The molecule further returned a percent labeling under setting [9] of 43.8%, a percent labeling under setting [10] of 32%, a percent labeling under setting [11] of 43.7% and a percent labeling under setting [12] of 52%.
On to `O=C(CCS)Nc1cccc(-c2cccnc2)c1`, for which the percent labeling by setting is: under setting [2], 18.9%; under setting [3], 26.3%; under setting [4], 30.6%; under setting [5], 23.5%; under setting [6], 18.6%; under setting [7], 49.1%. The percent labeling is, setting by setting: under setting [9], 16.3%; under setting [10], 17.5%; under setting [11], 15.8%; under setting [12], 40.8%.
With `O=C(CCS)NC1(c2ccc(F)cc2F)CCCCC1`, the percent labeling reads like this: under setting [2], 12.7%; under setting [3], 26.5%; under setting [4], 29%; under setting [5], 21.5%; under setting [6], 23.3%; under setting [7], 48%. For the same molecule, the percent labeling reads like this: under setting [9], 19.5%; under setting [10], 23.5%; under setting [11], 20.2%; under setting [12], 41.3%.
For the molecule `Cc1ccc(NC(=O)CCS)cc1Oc1ccc(Cl)cc1`, the percent labeling was 13.3% under setting [2]; 36.3% under setting [3]; 31.2% under setting [4]; 20.5% under setting [5]; 24.1% under setting [6]; 36% under setting [7]. Also, the percent labeling came to 23.6% under setting [9], 19.3% under setting [10], 10.3% under setting [11] and 37.9% under setting [12].
